A collection of fitness landscapes (doi:10.1126/science.1257360)
The other results are listed elsewhere or left out.

B1: PhoQ; a variant is named by its letters at X, in order, P23837 (parent)
chain: MKKLLRLFFPLSLRVRFLLATAAVVLVLSLAYGMVALIGYSVSFDKTTFRLLRGESNLFYTLAKWENNKLHVELPENIDKQSPTMTLIYDENGQLLWAQRDVPWLMKMIQPDWLKSNGFHEIEADVNDTSLLLSGDHSIQQQLQEVREDDDDAEMTHSVAVNVYPATSRMPKLTIVVVDTIPVELKSSYMVWSWFIYVLSANLLLVIPLLWVAAWWSLRPIEALAKEVRELEEHNRELLNPATTRELTSLVRNLNRLLKSERERYDKYRTTLTDLTHSLKTPLXXLQXXLRSLRSEKMSVSDAEPVMLEQISRISQQIGYYLHRASMRGGTLLSRELHPVAPLLDNLTSALNKVYQRKGVNISLDISPEISFVGEQNDFVEVMGNVLDNACKYCLEFVEISARQTDEHLYIVVEDDGPGIPLSKREVIFDRGQRVDTLRPGQGVGLAVAREITEQYEGKIVAGESMLGGARMEVIFGRQHSAPKDE

Variants of: B1
Experiment: enrichment ratio after two sorts for PhoP signalling (ratio (wild type AVST 3.29)); higher = more functional
Settings: with PhoP (E. coli)

Variant | enrichment ratio
ADSK | ≤ 0.25
INKM | ≤ 0.25
ICWW | ≤ 0.25
LHTI | ≤ 0.25
DDTG | ≤ 0.25
YFHI | ≤ 0.25
QVQF | ≤ 0.25
HPFK | ≤ 0.25
KNVG | ≤ 0.25
MSWD | ≤ 0.25
GPPC | ≤ 0.25
MRRG | ≤ 0.25
DAWD | ≤ 0.25
YCQM | ≤ 0.25
FWCF | ≤ 0.25
CLFP | ≤ 0.25
IWKL | ≤ 0.25
PPPE | ≤ 0.25
LLLF | ≤ 0.25
LMVS | ≤ 0.25
ITSF | ≤ 0.25

Variant | enrichment ratio
SMSG | 4.92
SCFI | ≤ 0.25
FKRR | ≤ 0.25
GSFV | ≤ 0.25
KIDW | ≤ 0.25
RFHG | ≤ 0.25
DHAH | ≤ 0.25
ARKP | ≤ 0.25
RQFK | ≤ 0.25
MMPE | ≤ 0.25
KGYN | ≤ 0.25
RAVD | ≤ 0.25
VFGY | ≤ 0.25
YRVN | ≤ 0.25
DTMN | ≤ 0.25
KRCV | ≤ 0.25
INKS | ≤ 0.25
EEDH | ≤ 0.25
NWAN | ≤ 0.25
AEMF | ≤ 0.25
DKHI | ≤ 0.25

Variant | enrichment ratio
SKGW | ≤ 0.25
NSYN | 0.459
LVAR | ≤ 0.25
ICVM | ≤ 0.25
DQQY | ≤ 0.25
CRLV | ≤ 0.25
QMAN | ≤ 0.25
THRY | ≤ 0.25
SRHY | ≤ 0.25
GGVV | ≤ 0.25
LPWH | ≤ 0.25
NCMR | ≤ 0.25
LGAV | ≤ 0.25
MHFE | ≤ 0.25
MDKE | ≤ 0.25
KVAA | ≤ 0.25
GCMN | 4.94
TCKW | ≤ 0.25
EKNH | ≤ 0.25
NPEY | ≤ 0.25
LPQQ | ≤ 0.25

Variant | enrichment ratio
QKFN | ≤ 0.25
NNHI | ≤ 0.25
WTSG | ≤ 0.25
MVDY | ≤ 0.25
DRQY | ≤ 0.25
PDRD | ≤ 0.25
NDVF | ≤ 0.25
KRNA | ≤ 0.25
DSFV | ≤ 0.25
TWVF | ≤ 0.25
SMIY | ≤ 0.25
KADK | ≤ 0.25
NDGR | ≤ 0.25
PLML | ≤ 0.25
EPNL | ≤ 0.25
AESY | 6.75
EPHL | ≤ 0.25
TGIY | ≤ 0.25
FKDH | ≤ 0.25
KQSS | ≤ 0.25
KMCK | ≤ 0.25
